Screen size: about 48,000 compounds; about 120 (0.25%) were called active. This list was built around the results that the source calls inconclusive (neither active nor inactive); the mix of calls is not that of the screen. Calls come from the whole dose curve; as a rule, active = well fitted activation curve with a large enough effect; inconclusive = small, poorly fitted or top-dose-only effect, or another doubt; inactive = no such curve, though single readings can be large or run the other way. Where the call is inconclusive, the potency comes from a doubtful curve fit.
Assay: Primary qHTS for Identification of Small Molecule Activators of Huntingtin-Antisense Promoter Activity; note: nearly all actives have a fitted effect of over 55% in size
Details: HEK293 HTT-AS promoter firefly luciferase reporter, 24 h; activity change, positive = activation: at 57.5 µM (top of the series), percent change from vehicle, -100% = no light
Text: Assay Provider: Russell L. Margolis M.D.
Department Neurology, Johns Hopkins University School of Medicine, Baltimore, MD
Huntington's Disease (HD) is a neurodegenerative disorder caused by a CAG repeat expansion in exon 1 of huntingtin (HTT). While there are currently no disease-modifying treatments for HD, recent efforts have focused on development of nucleotide-based therapeutics to lower HTT expression. As an alternative to siRNA or oligonucleotide methods, we hypothesized that suppression of HTT expression might be accomplished by small molecules that either (1) directly decrease HTT expression by suppressing HTT promoter activity or (2) indirectly decrease HTT expression by increasing the promoter activity of HTT-AS, the gene antisense to HTT that appears to inhibit expression of HTT.
We developed and employed a high throughput screen for modifiers of HTT and HTT-AS promoter activity using luminescent reporter HEK293 cells; of the 52,041 compounds tested, we identified 898 replicable hits. We used a rigorous stepwise approach to assess compound toxicity and the capacity of the compounds to specifically lower huntingtin protein in 5 different cell lines, including HEK293 cells, HD lymphoblastoid cells, mouse primary neurons, HD iPSCs differentiated into cortical-like neurons, and HD hESCs. We found no compounds which were able to lower huntingtin without lowering cell viability in all assays, though the potential efficacy of a few compounds at non-toxic doses could not be excluded.
SEQUENCE No. (1, 2, 3, etc.); […] (e.g., Cells, Incubation, Reagent, etc.); VALUE and DESCRIPTION.
1; Reagent; 4 uL; 2,500 Hek293 luciferase reporter cells per wells
3; Compound; 23 nL; Control inhibitor / compound library
5; Reagent; 2.5 uL; Firefly Luc reagent; Dual-Glo Luciferase Reporter Assay System (Promega)
6; Time; 10 min; room temperature incubation
7; Detection; Luminescence; FLuc
NOTES (numbers refer to sequence above)
1; High-throughput screening, measuring luminescence from a Hek293 luciferase reporter, was performed in 1,536 well white-walled tissue-culture treated plates. 2,500 cells were plated in 4 µL of Opti-MEM per well using a Multidrop Combi Reagent Dispenser (ThermoFisher).
2; Assay plates were cultured for 24 hours.
3; Control inhibitor (PTC124; final concentration of 50 uM) and compound library (at final concentrations of 460 nM - 57.5 uM) were added to the assay plate using the Kalypsis Pintool Robotic System equipped with 1536 pinheads.
4; Cells were then incubated for 24 hours at 37 degrees C prior to luminescence measurements.
5; In all cases, luminescence was measured using the Dual-Glo Luciferase Reporter Assay System (Promega) following the manufacturer's instructions.
6; Room temperature incubation.
7; Luminescence signal was obtained using the PerkinElmer ViewLux plate reader. Results were normalized to vehicle control (0% activity) and zero RLU (-100% activity).
Potency is the fitted concentration of half-maximal effect; tags give direction and shape of the fitted curve.

| SMILES | Potency | activity change, positive = activation |
| --- | --- | --- |
| CCc1ccc(NC(=O)CCNS(=O)(=O)c2ccc3c(c2)oc(=O)n3C)cc1 | inconclusive: 17.8 µM [activator, partial curve, poor fit] |  |
| COc1ccc(S(=O)(=O)Nc2cc3c(C(=O)OC(C)C)c(C)oc3c3ccccc23)cc1 |  | inconclusive: -35% [activator] |
| O=C(Nc1nc2ccccc2n1CCOc1ccccc1Cl)c1ccccc1 | inconclusive: 1.41 µM [activator, full curve, poor fit] |  |
| Cc1cccc(NC(=O)CSc2nc3ccc(NC(=O)CCc4ccccc4)cc3s2)c1 |  | inactive: -23.4% |
| COc1ccc(-c2nc3ccccc3s2)cc1NC(=O)c1cccc(F)c1 | inconclusive: 1.78 µM [activator, partial curve, poor fit] |  |
| CCc1ccc(C(=O)c2cn(CC(=O)Nc3cc(OC)cc(OC)c3)c3ccc(CC)cc3c2=O)cc1 |  | inactive: -9.58% |
| CNC(=O)c1c(I)c(NC(=O)CCCCC(=O)Nc2c(I)c(C(=O)O)c(I)c(C(=O)NC)c2I)c(I)c(C(=O)O)c1I |  | inactive: -59.3% |
| CC(=O)c1cccc(NC(=O)c2cc3sc(Cl)cc3n2C)c1 | inconclusive: 1.78 µM [activator, full curve] |  |
| COc1ccc(OCC(=O)Nc2cc(-c3nc4ccccc4o3)ccc2Cl)cc1 | active: 10 µM |  |
| Cc1ccccc1OCCSc1nc2ccc(NC(=O)c3ccco3)cc2s1 |  | inactive: -25% |
| Cc1cccc(-c2nc3cc(NC(=O)COc4ccccc4F)ccc3o2)c1 | inconclusive: 2 µM [activator, full curve, poor fit] |  |
| CCOc1ccc(-c2cc3c(=O)n(CC(=O)NCc4ccccc4)ccn3n2)cc1 | inconclusive: 0.501 µM [activator, full curve, poor fit] |  |
| Cc1ccc(-c2cc(NC(=O)C(C)Oc3ccccc3F)on2)cc1 (stereo not given) | inconclusive: 8.91 µM [activator, partial curve, poor fit] |  |
| COc1ccc(N2CCN(c3oc(/C=C/c4ccccc4OC)nc3C#N)CC2)cc1 |  | inactive: 1.58% |
| COc1ccc(NC(=O)C(=O)NCc2ccco2)c(OC)c1 | inconclusive: 12.6 µM [activator, partial curve, poor fit] |  |
| CC(C)Oc1ccc(CNC(=O)c2cccc(NC(=O)c3nsc4ccccc34)c2)cc1 | inconclusive: 1.12 µM [activator, partial curve, poor fit] |  |
| O=C(Cn1cc(SCc2ccccc2F)c2ccccc21)N1CCCC1 | inconclusive: 12.6 µM [activator, partial curve] |  |
| O=C(Nc1nc2c(s1)CCCC2)c1ccccc1F |  | inconclusive: -75.9% [activator] |
| CNC(=O)c1ccc2nc(Cc3ccccc3)oc2c1 | inconclusive: 8.91 µM [activator, partial curve] |  |
| O=C(COc1ccc(Cl)cc1)Nc1ccc(-c2nc3cc(Cl)ccc3o2)c(O)c1 | inconclusive: 7.94 µM [activator, partial curve] |  |
| Cc1c(C(=O)Nc2cccc(C#N)c2)sc2nc3n(c(=O)c12)CCCCC3 | inconclusive: 10 µM [activator, partial curve] |  |
| COc1ccccc1N1CCN(c2ccc(-c3nc(-c4ccccc4C)no3)cc2[N+](=O)[O-])CC1 | inconclusive: 11.2 µM [activator, partial curve] |  |

| SMILES | Potency | activity change, positive = activation |
| --- | --- | --- |
| COc1cccc(NC(=O)C(=O)NCCc2csc(-c3ccc(C(F)(F)F)cc3)n2)c1 | inconclusive: 3.98 µM [activator, full curve, poor fit] |  |
| O=C(Nc1cccc(C(=O)N2CCN(c3ccccc3F)CC2)c1)c1nsc2ccccc12 | inconclusive: 0.562 µM [activator, full curve, poor fit] |  |
| Cc1ccc(NC(c2nnc(-c3ccccc3)o2)c2ccccc2F)c([N+](=O)[O-])c1 (stereo not given) | inconclusive: 10 µM [activator, partial curve] |  |
| COc1ccc2[nH]c(S(=O)Cc3ncc(C)c(OC)c3C)nc2n1 (stereo not given) |  | inactive: 2.88% |
| CSc1ccc(CCNC(=O)CCc2c(C)nc3cc(-c4ccccc4)nn3c2C)cc1 |  | inactive: -68.2% |
| CCNC(=O)c1ccc2nc(Cc3ccccc3)oc2c1 | inconclusive: 14.1 µM [activator, partial curve] |  |
| Cc1ccc(-c2nnc3ccccc3c2C(=O)Nc2cccc(Cl)c2)cc1 | inconclusive: 25.1 µM [activator, single point] |  |
| CCc1ccccc1Nc1cc(C(=O)NC2CCC(C)CC2)c2ccccc2n1 (stereo not given) | inconclusive: 15.8 µM [activator, partial curve, poor fit] |  |
| Cc1ccc(S(=O)(=O)C2(C(=O)Nc3ccc(C(C)C)cc3)CC2)cc1 | inconclusive: 11.2 µM [activator, partial curve, poor fit] |  |
| COc1ccc(CCNC(=O)c2c[nH]n3c(=O)c(Cc4ccccc4Cl)c(C)nc23)cc1OC |  | inactive: -33.8% |
| O=C(Nc1cc(-c2nc3cc(Cl)ccc3o2)ccc1Cl)c1cccc2ccccc12 | active: 17.8 µM |  |
| Cc1ccc(C)c(Nc2ncnc3c2cnn3-c2ccc(F)cc2)c1 | inconclusive: 5.62 µM [activator, partial curve] |  |
| CCOc1nc(NC(=O)NS(=O)(=O)Oc2cccc(Cl)c2)nc(-c2ccccc2)n1 | inconclusive: 14.1 µM [activator, single point] |  |
| CCOc1ccccc1NC(=O)C(=O)c1cc(C)n(-c2ccc(F)cc2)c1C | inconclusive: 1.78 µM [activator, full curve, poor fit] |  |
| Cc1ccc(Nc2c(-c3ccc(C)cc3)nc3ccc(C)cn23)cc1 | inconclusive: 8.91 µM [activator, partial curve] |  |
| CCn1c(C)c(C)c2cc(C(=O)N3CCN(c4cccc(C)c4C)CC3)ccc21 |  | inactive: -13.7% |
| COc1ccc(CC(=O)Nc2cc(-c3nc4cccnc4s3)ccc2C)cc1 | inconclusive: 5.62 µM [activator, partial curve] |  |
| CCOc1ccc(CNCc2c(C(=O)O)n(Cc3ccc(OC)cc3)c3ccccc23)cc1 |  | inactive: -39.8% |
| CC[C@@H]1C(=O)N(C)c2cnc(Nc3ccc(C(=O)NC4CCN(C)CC4)cc3OC)nc2N1C1CCCC1 |  | inactive: -26.3% |
| Cc1c(NC(=O)c2ccc(Cl)cc2)cc(C(C)C)c(O)c1S(=O)(=O)c1ccccc1 | inconclusive: 3.98 µM [activator, single point] |  |
| O=c1oc2ccc(F)cc2cc1-c1nc(-c2cccs2)no1 | inconclusive: 14.1 µM [activator, partial curve] |  |
| Cc1ccc(CSc2nc3cccnc3n2Cc2ccc(C(=O)NCc3cccs3)cc2)cc1 | inconclusive: 2.24 µM [activator, single point] |  |

| SMILES | Potency | activity change, positive = activation |
| --- | --- | --- |
| CC(C)(C)C(=O)Nc1ccc2nc(SCc3ccccc3)sc2c1 |  | inactive: 2.46% |
| COc1ccc(-c2cn3nc(N4CCCC(C(=O)NCCCOC(C)C)C4)sc3n2)cc1 (stereo not given) | inconclusive: 3.55 µM [activator, single point] |  |
| COc1ccc(-n2ccn3c(CC(C)(C)CC(=O)O)nnc3c2=O)cc1 |  | inconclusive: -30.1% [activator] |
| CCOC(=O)c1ccc(N2C(=O)c3n[nH]c(-c4cccs4)c3C2c2cccc(O)c2)cc1 (stereo not given) |  | inactive: -55.2% |
| COC(=O)c1c(SCC(=O)Nc2ccccc2C(F)(F)F)[nH]c2ccc(Cl)cc2c1=O |  | inactive: 1.73% |
| COc1ccc(CNC(=O)c2cc(-c3ccc(OC)c(OC)c3)nc3n[nH]c(-c4ccc(C)cc4)c23)cc1 |  | inactive: -41.1% |
| Cc1ccc(C(=O)Nc2c(C)nc3ccccn3c2=O)cc1 | inconclusive: 15.8 µM [activator, partial curve, poor fit] |  |
| CCOc1ccc(-c2cc(NC(=O)Nc3ccccc3Cl)c(C(=O)OC)s2)cc1 | inconclusive: 10 µM [activator, partial curve] |  |
| Cc1ccc(-c2nnc(Nc3ccc(F)cc3)c3ccccc23)cc1S(=O)(=O)NC(C)C | inconclusive: 0.178 µM [activator, full curve, poor fit] |  |
| O=C(Nc1nnc(N2CCCC2)s1)Nc1cc(F)ccc1F | inconclusive: 10 µM [activator, partial curve] |  |
| CC(=O)c1cccc(NC(=O)C2CCN(c3nnc(-n4cccc4)s3)CC2)c1 |  | inactive: -17.3% |
| CC[C@]12C=CCN3CC[C@@]4(c5cc([C@@]6(C(=O)OC)C[C@H]7C[C@@H](C(C)(F)F)CN(Cc8c6[nH]c6ccccc86)C7)c(OC)cc5N(C)[C@H]4[C@@](O)(C(=O)OC)[C@H]1OC(C)=O)[C@@H]32 |  | inactive: -39.3% |
| Cc1c(-c2nsc(NC(=O)c3cccs3)n2)nnn1-c1ccc(F)cc1 | inconclusive: 0.891 µM [activator, partial curve, poor fit] |  |
| Cc1cccc(C(=O)Nc2ccc(N3CC=C(c4ccccc4C)CC3)c(C(=O)O)c2)c1 |  | inactive: 7.82% |
| CCOc1ccccc1CNC(=O)c1ccc2nc(N3CCC(C)CC3)sc2c1 |  | inactive: -53.6% |
| O=C(NCCc1ccccc1)c1ccc2nc(CCc3ccccc3)oc2c1 | inconclusive: 20 µM [activator, partial curve, poor fit] |  |
| Cc1ccc2oc(-c3cccc(NC(=O)c4cccc5c(Cl)cccc45)c3)nc2c1 | inconclusive: 3.55 µM [activator, full curve] |  |
| COc1cc(N)c(Cl)cc1C(=O)NC1CCN(CCCOc2ccc(F)cc2)CC1OC (stereo not given) |  | inactive: -7.15% |
| CCc1ccc(C(=O)CC2(O)C(=O)N(Cc3ccc(C)cc3)c3ccccc32)cc1 (stereo not given) |  | inactive: -20.8% |
| O=C(NCC1CCN(Cc2cccc(Cl)c2)CC1)Nc1ccc(F)c(Cl)c1 |  | inactive: -26.5% |
| Cc1ccc(-c2nc3cccc(C)n3c2Nc2ccc3c(c2)OCO3)o1 | inconclusive: 7.94 µM [activator, partial curve] |  |
